In all, about 360,000 compounds went through this assay and about 6,000 (1.7%) were called active. This list was built around the results that the source calls inconclusive (neither active nor inactive); the mix of calls is not that of the screen. Calls come from the whole dose curve; as a rule, active = well fitted cell-killing curve with a large enough effect; inconclusive = small, poorly fitted or top-dose-only effect, or effect the other way; inactive = flat fitted curve, though single readings scatter. No potency is given beside an inconclusive call; the fits are too rough.
Test: qHTS for induction of synthetic lethality in tumor cells producing 2HG: qHTS for the HT-1080-NT fibrosarcoma cell line;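 note: NT is the 2HG producing partner of a matched IDH1 knockdown line; nearly all actives have a fitted effect of over 55% in size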;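 for activity, negative = less viability: 0% = DMSO-treated cells and -100% = media-only wells without cells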
Details: HT-1080-NT fibrosarcoma viability, CellTiter-Glo ATP luminescence, 48 h; activity, negative = less viability: at 46.1 µM (top of the series) unless noted
How it was run: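 Read-out is CellTiter-Glo luminescence after 10 minutes at room temperature, following 48 hours' compound treatment of HT-1080-NT cells (750 cells/well, RPMI, 5% FBS, 37 degrees C).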
Potency is the fitted concentration of half-maximal effect; tags give direction and shape of the fitted curve.

Q: With `COc1ccc(OC)c(N2C(=O)c3cccnc3C2=O)c1` as the molecule, how does the activity, negative = less viability read?
A: Its activity, negative = less viability is inconclusive: 13.2% [cytotoxic].

Q: For `C/C(=N\NC(=S)NCCc1ccccc1)c1ccc(O)cc1O`, which Potency is on record?
A: Its Potency is inconclusive [cytotoxic, partial curve].

Q: For `COc1cccc(C(C)(O)c2nc(-c3ccc(F)cc3OC)cs2)c1` (centres undefined), which Potency is on record?
A: The Potency was inconclusive [cytotoxic, single point].

Q: Which “activity, negative = less viability” value does the source give for `O=c1cc(SCc2ccccc2)nc[nH]1` here?
A: Its value is inactive: 1.33%.

Q: Which activity, negative = less viability does the source give for `O=C(NC(c1ccc(F)cc1)c1ccc2ccccc2n1)C1CCN(CCOc2ccc(F)cc2)CC1` (centres undefined) here?
A: The activity, negative = less viability was inconclusive: -79.2%.

Q: With `C#CCN(C[C@@H]1[C@@H](OC(=O)NCCCCCC)[C@@H](OC(=O)NCCCCCC)Cn2c(=O)ccc(=O)n21)S(=O)(=O)c1ccc(C)cc1` as the molecule, how does the Potency read?
A: Its Potency is active: 4.61 µM.

Q: With `C=CCn1cc(C(=O)NCC2CCCO2)c(=O)c2cc(S(=O)(=O)N3CCCCCC3)ccc21` (centres undefined) as the molecule, how does the “activity, negative = less viability” value read?
A: The value was inactive: -7.12%.

Q: With `O=C(O)c1ccc(N/N=C/c2ccc3c(c2)OCO3)cc1` as the molecule, how does the Potency read?
A: Its Potency is active: 18.4 µM.

Q: For `Cc1cc(O)cc(C)c1Cl`, which Potency is on record?
A: Its Potency is inconclusive [rising, single point].

Q: Which “activity, negative = less viability” value does the source give for `Cc1nc2c(sc(=S)n2Cc2ccco2)c(=O)n1CC(=O)Nc1ccc(F)cc1` here?
A: The value was inactive: 5.18%.

Q: For `CC1(C(=O)NS(=O)(=O)c2ccc(Cl)cc2)CCN1C(=O)CCC1CCCC1` (centres undefined), which “activity, negative = less viability” value is on record?
A: The value was inactive: 14.9%.

Q: Which Potency does the source give for `CC(C)(C)c1ccc(C(=O)CSc2ncn[nH]2)cc1` here?
A: The Potency was inconclusive [cytotoxic, single point].

Q: With `C=CC[C@@H](CC(=O)N(CCO)Cc1ccccc1)C(=O)N[C@H](COC(=O)[C@@H](CC=C)Cc1ccc(F)cc1)C(C)(C)C` as the molecule, how does the Potency read?
A: The Potency was inconclusive [cytotoxic, single point].

Q: For `CC(=O)C1=CCC(c2ccc(Br)cc2)N(S(=O)(=O)c2ccc(C)cc2)C1` (centres undefined), which Potency is on record?
A: The Potency was inconclusive [cytotoxic, single point].

Q: For `NS(=O)(=O)c1cccc(NC(=O)/C=C/c2cccs2)c1`, which Potency is on record?
A: Its Potency is inconclusive [rising, partial curve].

Q: Which Potency does the source give for `COc1ccccc1/C=C1\S/C(=N/NC(=O)c2cccc(Br)c2)NC1=O` here?
A: Its Potency is inconclusive [cytotoxic, single point].

Q: For `O=c1[nH]nc(-c2ccc([N+](=O)[O-])o2)c(=O)[nH]1`, which “activity, negative = less viability” value is on record?
A: Its value is inactive: 3.92%.

Q: Which Potency does the source give for `Cc1ccc(CNC(=O)C(Cc2ccccc2)NS(=O)(=O)c2ccc(Br)s2)cc1` (centres undefined) here?
A: The Potency was inconclusive [cytotoxic, single point].

Q: For `Cc1cccc(C)c1NC(=O)C(c1ccccc1F)n1c(=O)c(-c2cc3ccccc3[nH]2)nc2ccccc21` (centres undefined), which Potency is on record?
A: Its Potency is inconclusive [cytotoxic, single point].
